From publication PMC6318328, “Structural insights into trans-histone regulation of H3K4 methylation by unique histone H4 binding of MLL3/4” (Nature Communications, 2019)

Tests used:
MLL4_(ePHD6)_(1475–1564) = target: T1, MLL4_(ePHD6)_(1475–1564) (human, UniProt O14686 1475-1564); assay: ITC; peptide (1–2 mM) in the syringe injected into protein (50–100 μM) in the cell; 25 °C; 20 mM Tris pH 7.5, 150 mM NaCl; single-site binding model; conditions: both partners purified
T1 construct: MLL4 (KMT2D, ALR), human, residues 1475–1564: the zinc finger before PHD6 and the sixth PHD domain; also called extended PHD6 domain of MLL4; source: E. coli BL21 (DE3) Codon plus RIL, purified (Ni-NTA, thrombin, HiTrap Q, Superdex75); not shown: GST, N-terminal, cleaved; His tag, N-terminal, cleaved

MLL3_(ePHD6)_(1055–1144) = target: T2, MLL3_(ePHD6)_(1055–1144) (human, UniProt Q8NEZ4 1055-1144); assay: as above; conditions: both partners purified
T2 construct: MLL3 (KMT2C), human, residues 1055–1144: the zinc finger before PHD6 and the sixth PHD domain; Monomer in solution by gel filtration; the dimer in the crystal is put down to crystal packing; also called extended PHD6 domain of MLL3; source: E. coli BL21 (DE3) Codon plus RIL, purified (Ni-NTA, thrombin, HiTrap Q, Superdex75); not shown: GST, N-terminal, cleaved; His tag, N-terminal, cleaved
T2 sequence (looked up): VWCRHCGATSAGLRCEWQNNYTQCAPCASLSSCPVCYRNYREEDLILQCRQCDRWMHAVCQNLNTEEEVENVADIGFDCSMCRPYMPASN

Chain of MLL4_(ePHD6)_(1475–1564) (O14686 1475-1564): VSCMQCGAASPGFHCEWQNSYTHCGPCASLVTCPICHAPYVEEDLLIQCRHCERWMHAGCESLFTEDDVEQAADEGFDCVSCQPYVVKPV

B1: histone H4 peptide H4_([…])R3A (peptide)
peptide: not shown
notes: histone H4, […] with R3A; also called R3A mutant of the histone H4_([…]) peptide; source: synthetic peptide (Peptide 2.0 Inc.)
Kd (MLL4_(ePHD6)_(1475–1564)): 28 µM
Kd (MLL3_(ePHD6)_(1055–1144)): 66 µM
